In all, about 310,000 compounds went through this assay and about 14,000 (4.5%) showed an effect of 50% or more. Effects have a minus sign here. This is one part of the list. Where a SMILES comes first, the peptide text is derived from it. [ ]: non-standard residue; d: D form. The star is where a group is joined. ξ: configuration not given here. ξY = NC(Cc1ccc(O)cc1)C(=O)O; Cbz = O=C(OCc1ccccc1)*; OtBu = CC(C)(C)O*; tBu = CC(C)(C)*
The molecules below were run against human ether-à-go-go-related gene (hERG) potassium channel (human, UniProt Q12809) (assay: primary screen, population patch clamp on CHO cells stably expressing hERG).
Sequence of human ether-à-go-go-related gene (hERG) potassium channel (Q12809 whole entry, looked up): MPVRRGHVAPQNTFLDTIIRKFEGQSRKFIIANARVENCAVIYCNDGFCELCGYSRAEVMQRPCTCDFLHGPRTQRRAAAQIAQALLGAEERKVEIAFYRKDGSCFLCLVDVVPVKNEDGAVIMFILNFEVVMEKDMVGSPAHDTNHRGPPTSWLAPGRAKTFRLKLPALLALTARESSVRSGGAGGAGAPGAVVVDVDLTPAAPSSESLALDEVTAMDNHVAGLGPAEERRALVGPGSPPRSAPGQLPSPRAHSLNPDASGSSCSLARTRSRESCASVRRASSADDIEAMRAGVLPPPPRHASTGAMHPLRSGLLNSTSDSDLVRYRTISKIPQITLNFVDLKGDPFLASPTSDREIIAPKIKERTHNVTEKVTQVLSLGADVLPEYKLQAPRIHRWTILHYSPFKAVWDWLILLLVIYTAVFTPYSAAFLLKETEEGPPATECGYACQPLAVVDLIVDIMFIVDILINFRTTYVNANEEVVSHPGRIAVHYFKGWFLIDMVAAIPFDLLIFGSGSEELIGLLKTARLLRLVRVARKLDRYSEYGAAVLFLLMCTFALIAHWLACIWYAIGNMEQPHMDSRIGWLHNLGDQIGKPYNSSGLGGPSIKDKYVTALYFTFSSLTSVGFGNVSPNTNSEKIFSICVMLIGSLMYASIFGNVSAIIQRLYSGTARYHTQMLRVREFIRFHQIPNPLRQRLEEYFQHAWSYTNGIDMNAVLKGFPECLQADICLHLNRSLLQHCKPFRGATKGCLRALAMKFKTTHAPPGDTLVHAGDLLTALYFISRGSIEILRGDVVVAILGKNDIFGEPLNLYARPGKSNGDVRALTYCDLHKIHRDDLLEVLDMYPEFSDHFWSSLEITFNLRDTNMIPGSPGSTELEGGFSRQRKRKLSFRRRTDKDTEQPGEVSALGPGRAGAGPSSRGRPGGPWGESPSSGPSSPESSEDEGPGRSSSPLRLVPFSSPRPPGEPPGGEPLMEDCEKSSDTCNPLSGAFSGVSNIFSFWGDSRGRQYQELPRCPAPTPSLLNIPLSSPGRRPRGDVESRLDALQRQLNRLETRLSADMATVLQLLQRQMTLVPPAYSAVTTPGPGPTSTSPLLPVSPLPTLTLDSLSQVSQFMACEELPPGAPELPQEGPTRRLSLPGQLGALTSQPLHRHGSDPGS
For CC(=O)c1ccc(S(=O)(=O)NCc2ccc(C(=O)NCC(c3ccccc3)N(C)C)cc2)cc1 (stereo not shown), the “hERG current change (%, negative = inhibition) at 10uM” value was 16.2%. O=[N+]([O-])c1ccccc1NCCNc1ncc(C(F)(F)F)cc1Cl was tested, and the “hERG current change (%, negative = inhibition) at 10uM” value was -3.33%. In the case of CCCCN(C(=O)c1cc2c(s1)CCC2)c1c(N)n(CCCC)c(=O)[nH]c1=O, the “hERG current change (%, negative = inhibition) at 10uM” value is reported as -0.537%. Cc1cc(OC(C)C(=O)NCc2cccnc2)c2c(C)c(C)c(=O)oc2c1 (stereo not shown) was tested, and the “hERG current change (%, negative = inhibition) at 10uM” value was 23.7%. For CC1CCCN(C(=O)C(C)Nc2cc(Cl)ccc2N2CCOCC2)C1 (stereo not shown), the “hERG current change (%, negative = inhibition) at 10uM” value was -17.4%. For CC(C)(C)c1ccc(C(=O)/C(C#N)=C/c2cccs2)cc1, the “hERG current change (%, negative = inhibition) at 10uM” value was 7.3%. For CCOC(=O)/C=C1\SCC(=O)N1CC(=O)NC12CC3CC(CC(C3)C1)C2, the “hERG current change (%, negative = inhibition) at 10uM” value was -10.3%. For N#CCc1nn(-c2ccc(F)cc2)c(N)c1C#N, the “hERG current change (%, negative = inhibition) at 10uM” value was 23.1%. With Nc1ccc(-c2nc3ncccc3o2)c(Cl)c1 the “hERG current change (%, negative = inhibition) at 10uM” value was 6.36%. With CNC(=O)c1ccc(-c2sc3nc(N4CCOCC4)c4c(c3c2N)CCCC4)o1 the “hERG current change (%, negative = inhibition) at 10uM” value was -20.5%. Cl.O=S(=O)(c1cccc2cnccc12)N1CCCNCC1 was tested, and the “hERG current change (%, negative = inhibition) at 10uM” value was 4.6%. For COCC(C)Nc1ccc(S(=O)(=O)N2CCCC2)cc1[N+](=O)[O-] (stereo not shown), the “hERG current change (%, negative = inhibition) at 10uM” value was 0.637%. NC(=O)CCN1CCN(C(=O)c2ccc3nc(Cc4cccc(Cl)c4)oc3c2)CC1 was tested, and the “hERG current change (%, negative = inhibition) at 10uM” value was -13.9%. In the case of CCN(CCCNC(=O)C1CCN(S(=O)(=O)c2c(C)[nH]c(=O)[nH]c2=O)CC1)c1cccc(C)c1, the “hERG current change (%, negative = inhibition) at 10uM” value is reported as 3.07%. Cc1cc(C)n(CC2CC(=O)N(c3cc(Cl)cc(Cl)c3)C2=O)n1 (stereo not shown) was tested, and the “hERG current change (%, negative = inhibition) at 10uM” value was -6.27%. With O=C(NCC1CCCO1)c1ccc(N2C(=O)C3CCCCC3C2=O)cc1 (stereo not shown) the “hERG current change (%, negative = inhibition) at 10uM” value was 6.36%. CCOc1ccc(S(=O)(=O)N(C)CC(=O)NCc2ccccn2)cc1 was tested, and the “hERG current change (%, negative = inhibition) at 10uM” value was 5.47%. With CCCn1nnc(NC(=O)c2ccc(F)cc2)n1 the “hERG current change (%, negative = inhibition) at 10uM” value was 3.93%. With O=C(CN1C(=O)C2C3CC(C(Br)C3Br)C2C1=O)N1CCN(Cc2ccccc2)CC1 (stereo not shown) the “hERG current change (%, negative = inhibition) at 10uM” value was -19.7%. With CC(Oc1cccc(F)c1)c1ccnc2nc(/N=C/N(C)C)nn12 (stereo not shown) the “hERG current change (%, negative = inhibition) at 10uM” value was 8.85%. For CCOc1ccc(CNCCCSc2ncccn2)cc1, the “hERG current change (%, negative = inhibition) at 10uM” value was -47.1%. With COC(=O)C1=COC(C)C2CN3CCc4c([nH]c5ccccc45)C3CC12 (stereo not shown) the “hERG current change (%, negative = inhibition) at 10uM” value was -34.3%. With O=C(O)/C=C/C(=O)NNC(=O)c1ccccc1Br the “hERG current change (%, negative = inhibition) at 10uM” value was 2.8%. With COc1ccc(OCC(=O)NNC(=S)NC(=O)C2CC2)cc1 the “hERG current change (%, negative = inhibition) at 10uM” value was 2.3%. Cn1ccnc1SCC(=O)Nc1cc(S(=O)(=O)N2CCOCC2)ccc1Cl was tested, and the “hERG current change (%, negative = inhibition) at 10uM” value was -5.42%. COc1ccccc1CNCC(=O)Nc1cc(S(=O)(=O)N2CCOCC2)ccc1Cl was tested, and the “hERG current change (%, negative = inhibition) at 10uM” value was -27%. With CC(C)C(=O)NS(=O)(=O)c1ccc(N)cc1 the “hERG current change (%, negative = inhibition) at 10uM” value was 8.54%. S=c1[nH]nc(C2CCCCC2)n1/N=C/c1ccccc1Cl was tested, and the “hERG current change (%, negative = inhibition) at 10uM” value was 16.2%. With CCCCn1c(N)c(N(CCC(C)C)C(=O)CSc2nnc(Nc3ccccc3)s2)c(=O)[nH]c1=O the “hERG current change (%, negative = inhibition) at 10uM” value was 1.18%. Cc1ccc(N2C(=O)[C@@H]3[C@H](C2=O)C2c4ccccc4C=CN2[C@@H]3C(=O)c2ccco2)c(C)c1 (stereo partly shown) was tested, and the “hERG current change (%, negative = inhibition) at 10uM” value was -5.68%. With COc1ccccc1-c1nc2cc3ccccc3cc2nc1-c1ccccc1 the “hERG current change (%, negative = inhibition) at 10uM” value was -0.34%. CC(=O)N/C(=C\c1ccccc1)C(=O)OC(C)C(=O)Nc1ccccc1F (stereo not shown) was tested, and the “hERG current change (%, negative = inhibition) at 10uM” value was 9.58%. With Cn1c(SCC(=O)NCc2ccc3c(c2)OCO3)nc2c(c1=O)SCC2 the “hERG current change (%, negative = inhibition) at 10uM” value was -21%. In the case of COc1ccc(CNC(=O)C2CCN(S(=O)(=O)N3CC(C)CC(C)C3)CC2)cc1 (stereo not shown), the “hERG current change (%, negative = inhibition) at 10uM” value is reported as 22.9%. CCOc1ccc(NS(=O)(=O)c2c(C(=O)N3CCCCCC3)c(C)n(C)c2C)cc1 was tested, and the “hERG current change (%, negative = inhibition) at 10uM” value was 8.34%. With O=[N+]([O-])c1ccc(CSc2nnc(Cc3ccccc3)n2-c2ccc(F)cc2)cc1 the “hERG current change (%, negative = inhibition) at 10uM” value was -48.7%. With CC1(C)Oc2ccc3ccc(=O)oc3c2[C@@H](O)[C@H]1O the “hERG current change (%, negative = inhibition) at 10uM” value was 15.5%. For O=C1CC(=O)Nc2cc(S(=O)(=O)Nc3ccc(Cl)c(C(F)(F)F)c3)ccc2N1, the “hERG current change (%, negative = inhibition) at 10uM” value was 16.8%. With O=C(O)c1ccc(CSc2nnc(-c3ccncc3)n2-c2ccc(Cl)cc2)cc1 the “hERG current change (%, negative = inhibition) at 10uM” value was 8.71%. O=S1(=O)NC(=NCCc2ccccn2)c2ccccc21 was tested, and the “hERG current change (%, negative = inhibition) at 10uM” value was 11.5%. In the case of CC(C)(C)OC(=O)N1CCC(CC2CC(c3ccccc3)=NO2)(C(=O)O)CC1 (stereo not shown), the “hERG current change (%, negative = inhibition) at 10uM” value is reported as 14.7%. For O=C1Cc2ccccc2N1c1ccccc1, the “hERG current change (%, negative = inhibition) at 10uM” value was -5.58%. With O=C(NCCO)c1ccc2[nH]c3c(c2c1)CCCC3 the “hERG current change (%, negative = inhibition) at 10uM” value was -0.0914%. Cn1c(Cc2nc(-c3cnccn3)no2)nnc1SCC(=O)Nc1ccccc1 was tested, and the “hERG current change (%, negative = inhibition) at 10uM” value was 1.06%. In the case of COc1ccc(OC)c(NC(=S)NCc2ccccc2OC)c1, the “hERG current change (%, negative = inhibition) at 10uM” value is reported as 5.94%. In the case of CCOC(=O)C1CCN(C(=O)c2cc3cc(F)ccc3[nH]2)CC1, the “hERG current change (%, negative = inhibition) at 10uM” value is reported as -49.5%. For Nc1ccc(Cl)c[n+]1Cc1cccc2cccnc12.[Br-], the “hERG current change (%, negative = inhibition) at 10uM” value was -46.1%. In the case of CSc1ccccc1NC(=O)CN(C)C(=O)c1ccc(NC(=O)c2cccs2)cc1, the “hERG current change (%, negative = inhibition) at 10uM” value is reported as 9.13%. With COc1ccc(CC(=O)OCC(=O)Nc2ncc(Cl)cc2Cl)cc1OC the “hERG current change (%, negative = inhibition) at 10uM” value was 13.5%. In the case of O=C(Oc1cccnc1)c1cc(S(=O)(=O)N2CCOCC2)ccc1Cl, the “hERG current change (%, negative = inhibition) at 10uM” value is reported as -13.9%. For Cc1ccc(CN(C)C(=O)COC(=O)CSc2ccc(C(N)=O)cc2[N+](=O)[O-])cc1, the “hERG current change (%, negative = inhibition) at 10uM” value was -9.91%. In the case of COc1ccc(C(=O)N/N=C\c2ccoc2)cc1, the “hERG current change (%, negative = inhibition) at 10uM” value is reported as 20.8%. For O=C(NC(=S)Nc1cc(Cl)ccc1N1CCOCC1)c1ccccc1[N+](=O)[O-], the “hERG current change (%, negative = inhibition) at 10uM” value was 4.51%. In the case of CCOC(=O)c1cn2nc(Oc3cccc(F)c3)ccc2n1, the “hERG current change (%, negative = inhibition) at 10uM” value is reported as -11.6%. In the case of CC(C)(C)OC(=O)C(Cc1ccc(OC(C)(C)C)cc1)NC(=O)CNC(=O)CNC(=O)OCc1ccccc1 (stereo not drawn) (Cbz-Gly-Gly-[ξY](tBu)-OtBu), the “hERG current change (%, negative = inhibition) at 10uM” value is reported as -2.33%.
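Further: peak tail current of the secondary pulse compared with the same well before compound.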
